Here are results for 27 molecules from the antibiotic and cytotoxicity screens of Wong et al. (2023).

Each structure is given as a SMILES string. Some of the results follow.

For one experiment, the system named is HSkMC. The experiment in a line: cytotoxicity call (relative viability < 0.9). Conditions: 10 µM.
Another experiment relates to HepG2. The experiment in a line: cytotoxicity call (relative viability < 0.9). Conditions: 10 µM.
In the next experiment the test system is S. aureus RN4220. The experiment in a line: growth inhibition call (relative growth <= 0.2). Conditions: 50 µM.

As to `Cc1noc(C)c1NC(=O)N(C)C[C@@H]1Oc2ccc(NS(C)(=O)=O)cc2C(=O)N([C@@H](C)CO)C[C@@H]1C`, the cytotoxicity call in the experiment with HSkMC and in the experiment on HepG2 was “inactive” throughout. The growth inhibition call in the experiment with S. aureus RN4220 was “inactive”.
For the molecule `C[C@@H]1CCCCO[C@@H](CN(C)CC2CC2)[C@H](C)CN([C@H](C)CO)C(=O)c2cc(NC(=O)Cc3ccccc3)ccc2O1`, the cytotoxicity call in the experiment with HSkMC and with HepG2 was “inactive” throughout. Besides, the growth inhibition call in the experiment with S. aureus RN4220 is “inactive”.
Take `C[C@H](CO)N1C[C@H](C)[C@@H](CN(C)C(=O)Nc2ccc(F)cc2)OCCCC[C@H](C)Oc2ccc(NC(=O)c3ccncc3)cc2C1=O`: the cytotoxicity call in the experiment on HSkMC and in the experiment with HepG2 was “inactive” throughout. Further, the growth inhibition call in the experiment with S. aureus RN4220 is “inactive”.
As for `C[C@H]1CN([C@@H](C)CO)C(=O)c2cc(/C=C/c3ccccc3)cnc2O[C@H]1CN(C)C(=O)c1cnccn1`, the cytotoxicity call in the experiment with HSkMC and in the experiment with HepG2 was “inactive” each time. In addition, in the experiment on S. aureus RN4220, the growth inhibition call is “inactive”.
Turning to `COc1ccc(NC(=O)N(C)C[C@H]2Oc3ccc(NS(=O)(=O)c4c(C)noc4C)cc3C(=O)N([C@@H](C)CO)C[C@H]2C)cc1`, the cytotoxicity call with HSkMC and in the experiment on HepG2 was “inactive” throughout. In addition, the growth inhibition call in the experiment with S. aureus RN4220 was “inactive”.
On to `C[C@H](CO)N1C[C@H](C)[C@@H](CN(C)S(=O)(=O)c2ccccc2)OCCCC[C@H](C)Oc2ccc(NC(=O)CCC(F)(F)F)cc2C1=O`, for which the cytotoxicity call in the experiment on HSkMC and with HepG2 was “inactive” in each case. In the experiment on S. aureus RN4220, the growth inhibition call was “inactive”.
In the case of `COCC#Cc1ccc2c(c1)O[C@H](CN(C)C(=O)C1CCCCC1)[C@@H](C)CN([C@@H](C)CO)S2(=O)=O`, the cytotoxicity call with HSkMC and in the experiment with HepG2 was “inactive” throughout. In addition, the growth inhibition call in the experiment with S. aureus RN4220 is “inactive”.
For `Fc1ccc(-c2n[nH]c(=S)o2)cc1`, the cytotoxicity call in the experiment with HSkMC and in the experiment with HepG2 was “inactive” throughout. Moreover, the growth inhibition call in the experiment on S. aureus RN4220 is “inactive”.
Consider `C[C@@H]1CCCCO[C@H](CN(C)C(=O)Nc2ccc3c(c2)OCO3)[C@H](C)CN([C@@H](C)CO)C(=O)c2cc(NS(=O)(=O)c3ccccc3)ccc2O1`, for which the cytotoxicity call in the experiment with HSkMC and in the experiment with HepG2 was “inactive” each time. In addition, in the experiment with S. aureus RN4220, the growth inhibition call is “inactive”.
Turning to `Cl.Clc1ccc2c(c1)CCc1cccnc1C2=C1CCNCC1`, in the experiment with HSkMC, the cytotoxicity call is “inactive”. Also, the cytotoxicity call in the experiment with HepG2 is “active”. For the same molecule, the growth inhibition call in the experiment with S. aureus RN4220 was “inactive”.
Take `c1cc(CN2CCCNCCNCCCNCC2)ccc1CN1CCCNCCNCCCNCC1`: the cytotoxicity call in the experiment on HSkMC and in the experiment on HepG2 was “inactive” throughout. For the same molecule, in the experiment on S. aureus RN4220, the growth inhibition call was “inactive”.
`CC1=CC(=O)C2C(C)(C)CCCC2(C)C1(O)CCc1ccoc1` (stereo unspecified): the cytotoxicity call in the experiment with HSkMC and with HepG2 was “inactive” in each case. The growth inhibition call with S. aureus RN4220 is “inactive”.
With `C[C@@H]1CCCCO[C@H](CN(C)C(=O)C2CCCCC2)[C@H](C)CN([C@H](C)CO)C(=O)c2cc(NC(=O)Cc3ccccc3)ccc2O1`, the cytotoxicity call with HSkMC and in the experiment on HepG2 was “inactive” in each case. For the same molecule, the growth inhibition call in the experiment with S. aureus RN4220 is “inactive”.
For the molecule `COc1ccc(NC(=O)N(C)C[C@@H]2OCCCC[C@@H](C)Oc3ccc(NC(=O)Nc4c(C)noc4C)cc3C(=O)N([C@H](C)CO)C[C@@H]2C)cc1`, the cytotoxicity call in the experiment on HSkMC and in the experiment with HepG2 was “inactive” in each case. Also, the growth inhibition call with S. aureus RN4220 is “inactive”.
In the case of `C[C@@H]1CN([C@@H](C)CO)C(=O)CCCn2nncc2CO[C@H]1CN(C)C(=O)Nc1ccccc1C(F)(F)F`, the cytotoxicity call in the experiment with HSkMC and in the experiment with HepG2 was “inactive” each time. For the same molecule, the growth inhibition call in the experiment on S. aureus RN4220 is “inactive”.
Turning to `COc1ccc2c3c([nH]c2c1)[C@@H](CO)N(C[C@]13CCN(CC1)C(=O)Nc1ccc(cc1)F)C(=O)c1ccc(cc1)F`, the cytotoxicity call in the experiment on HSkMC and with HepG2 was “inactive” each time. For the same molecule, in the experiment on S. aureus RN4220, the growth inhibition call is “inactive”.
For `C[C@@H]1CN([C@@H](C)CO)C(=O)c2cc(NS(=O)(=O)c3cccs3)ccc2O[C@@H]1CN(C)Cc1ccc(-c2ccccc2)cc1`, the cytotoxicity call with HSkMC and with HepG2 was “inactive” each time. In addition, the growth inhibition call with S. aureus RN4220 is “inactive”.
`C[C@@H]1CCCCO[C@H](CN(C)S(=O)(=O)c2cccs2)[C@@H](C)CN([C@H](C)CO)C(=O)c2cc(NC(=O)Nc3ccc(C(F)(F)F)cc3)ccc2O1`: the cytotoxicity call with HSkMC and with HepG2 was “inactive” throughout. Also, the growth inhibition call in the experiment on S. aureus RN4220 was “inactive”.
Turning to `Cc1nnc(C(C)C)n1[C@@H]1C[C@H]2CC[C@@H](C1)N2CC[C@H](NC(=O)C1CCC(F)(F)CC1)c1ccccc1`, the cytotoxicity call in the experiment with HSkMC and with HepG2 was “inactive” throughout. The growth inhibition call in the experiment with S. aureus RN4220 was “inactive”.
Consider `COc1ccc(NC(=O)Nc2ccc3c(c2)C(=O)N([C@H](C)CO)C[C@H](C)[C@H](CN(C)C(=O)Nc2cccc4ccccc24)OCCCC[C@H](C)O3)cc1`, for which the cytotoxicity call with HSkMC and in the experiment on HepG2 was “inactive” throughout. In the experiment with S. aureus RN4220, the growth inhibition call was “inactive”.
Turning to `C[C@H]1CN([C@@H](C)CO)C(=O)Cc2cc(NS(=O)(=O)c3ccc(F)cc3)ccc2O[C@@H]1CN(C)S(=O)(=O)c1ccccc1`, the cytotoxicity call in the experiment with HSkMC and with HepG2 was “inactive” in each case. Besides, the growth inhibition call in the experiment with S. aureus RN4220 was “inactive”.
In the case of `NCCC[C@H](NC(=O)[C@@H]1CCCN1C(=O)[C@@H]1CSSC[C@H](N)C(=O)N[C@@H](Cc2ccc(O)cc2)C(=O)N[C@@H](Cc2ccccc2)C(=O)N[C@@H](CCC(N)=O)C(=O)N[C@@H](CC(N)=O)C(=O)N1)C(=O)NCC(N)=O`, the cytotoxicity call in the experiment with HSkMC is “inactive”. Also, the cytotoxicity call in the experiment on HepG2 is “active”. Besides, the growth inhibition call in the experiment on S. aureus RN4220 was “inactive”.
As for `COc1ccc(S(=O)(=O)N(C)C[C@H]2Oc3ncc(-c4ccncc4)cc3C(=O)N([C@@H](C)CO)C[C@@H]2C)cc1`, the cytotoxicity call in the experiment with HSkMC and in the experiment with HepG2 was “inactive” in each case. The growth inhibition call in the experiment on S. aureus RN4220 was “inactive”.
`CCCN(C)C[C@@H]1OCCCC[C@@H](C)Oc2ccc(NS(C)(=O)=O)cc2C(=O)N([C@@H](C)CO)C[C@@H]1C`: the cytotoxicity call with HSkMC and in the experiment on HepG2 was “inactive” throughout. Further, the growth inhibition call in the experiment with S. aureus RN4220 is “inactive”.
Turning to `Nc1nc(=O)c2nc(CNc3ccc(C(=O)NC(CCC(=O)O)C(=O)O)cc3)cnc2[nH]1` (stereo unspecified), the cytotoxicity call with HSkMC and with HepG2 was “inactive” throughout. Besides, in the experiment on S. aureus RN4220, the growth inhibition call is “inactive”.
On to `C[C@@H]1CN([C@H](C)CO)C(=O)c2cc(NC(=O)Cc3cn(C)c4ccccc34)ccc2O[C@H]1CN(C)Cc1ccc(C(=O)Nc2ccccc2N)cc1`, for which the cytotoxicity call in the experiment on HSkMC (human skeletal muscle cells) and in the experiment on HepG2 was “inactive” each time. The growth inhibition call in the experiment on S. aureus RN4220 is “inactive”.
Turning to `Cc1ccccc1S(=O)(=O)N1C[C@@H](O)COC[C@@H]2O[C@H](CC(=O)NCCc3ccncc3)CC[C@H]21`, the cytotoxicity call with HSkMC and with HepG2 was “inactive” throughout. The growth inhibition call in the experiment on S. aureus RN4220 is “inactive”.
